# PubChem BioAssay AID2546 (National Center for Advancing Translational Sciences (NCATS), 2010)
# Among all 310,000 compounds or so, about 11,000 (3.5%) were called active. The shares of active, inactive and inconclusive entries below differ from those in the screen. Calls follow the shape of the dose curve; as a rule, active = well fitted inhibition curve with a large enough effect; inconclusive = small, poorly fitted or top-dose-only effect, or effect the other way; inactive = flat fitted curve, though single readings scatter. Potencies of inconclusive entries are left out as doubtful fits.
# Experiment: VP16 counterscreen qHTS for inhibitors of ROR gamma transcriptional activity;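 also: Gal4-VP16 expression switched on by copper sulfate through the metallothionein promoter; nearly all actives have a fitted effect of over 50% in size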
# Details: Drosophila S2 Gal4-VP16 UAS-luciferase, luminescence, 20 h; series mostly up to 53.6 µM
# Potency is read from the fitted curve at half-maximal effect; tags tell the direction and shape of the fitted curve.
row,Compound,Potency
1,Nc1n[nH]c(N)c1N=Nc1ccc(Cl)cc1Cl,inactive
2,Cc1ccc2nc(-c3ccc(N4C(=N)SC5CS(=O)(=O)CC54)cc3)sc2c1 (stereo unspecified),"inconclusive [inhibitor, single point]"
3,Cc1cccc(C(=O)N/N=C/C(C)Cc2ccc3c(c2)OCO3)c1 (stereo unspecified),"inconclusive [inhibitor, single point]"
4,O=C(Nc1cccnc1)c1ccc(COc2ccccc2Cl)o1,inactive
5,CSc1nsc(SC)c1C(=O)Nc1ccc(C(C)(C)C)cc1,"inconclusive [activator, single point]"
6,COc1ccc(S(=O)(=O)N2CCCN(CC(=O)Nc3ccc4c(c3)OCO4)CC2)cc1,"inconclusive [inhibitor, single point]"
7,C[C@H](NC(=O)c1nc[nH]c1C(=O)NCc1ccccc1)C(=O)OC(C)(C)C,inactive
8,CCC1Sc2ccc(S(=O)(=O)CCC(=O)Nc3ccc(C(=O)OC)cc3)cc2NC1=O (stereo unspecified),"inconclusive [inhibitor, partial curve]"
9,CCCCCC(=O)NNC(=S)NC(=O)c1cccc([N+](=O)[O-])c1,active: 5.01 µM
10,CC(=O)C1=C(C)N(Cc2ccccc2)C(=O)N[C@H]1CCc1ccccc1,"inconclusive [inhibitor, single point]"
11,COc1ccc(NC(=O)N2CCCC(C(=O)NC(C)C)C2)cc1 (stereo unspecified),inactive
12,CC(C)c1c(O)ccc2c1CCC1C(C)(C)CCC[C@@]21C (stereo partly specified),active: 10 µM
13,CN1CCC2(CC1)Nc1nc(SCc3ccc(Cl)cc3)nn1C1=C2CN(C)CC1,inactive
14,CN(C(=O)CSc1ncnc2sc(-c3ccccc3)cc12)C1CCS(=O)(=O)C1 (stereo unspecified),"inconclusive [inhibitor, single point]"
15,COCCNC(=O)CSc1nnc(NC(=O)C2CC(=O)N(c3ccccc3OC)C2)s1 (stereo unspecified),inactive
16,Cc1ccc(NC(=O)CCl)cc1S(=O)(=O)N1CCCCCC1,"inconclusive [inhibitor, single point]"
17,CC(C)COC(=O)c1cccc2c1-c1ccccc1/C2=N\O,active: 11.2 µM
18,O=C(CCCc1c[nH]c2ccccc12)NCc1ccccc1F,inactive
19,O=C(Nc1ccc(Br)cc1)c1cccc(S(=O)(=O)Nc2cnc3ccccc3c2)c1,"inconclusive [inhibitor, single point]"
20,O=C(Cn1nnc2ccccc21)N/N=C\c1cccs1,"inconclusive [inhibitor, single point]"
21,CC(=O)c1sc(NC(=O)COc2ccc(Cl)cc2C)nc1C,inactive
22,Clc1nssc1=Nc1ccc(Br)cc1,"inconclusive [inhibitor, single point]"
23,COc1cc2cc(CN(Cc3nnnn3Cc3ccccc3)CC3CCCO3)c(=O)[nH]c2cc1OC (stereo unspecified),"inconclusive [inhibitor, single point]"

row,Compound,Potency
1,COc1cccc(-n2c(SCC(=O)NC3CCCCC3)nc3n[nH]c(C)c3c2=N)c1,"inconclusive [inhibitor, partial curve, poor fit]"
2,COc1ccccc1C(=O)Nc1nnc(SCC(=O)NCc2ccco2)s1,"inconclusive [inhibitor, single point]"
3,CC(=O)Nc1ncc(Cc2cccc(Cl)c2)s1,"inconclusive [activator, single point]"
4,COc1ccc(C(C)=O)cc1COC(=O)c1ccc(S(=O)(=O)N(C)C)cc1,inactive
5,Cc1[nH]n(-c2ccccc2)c(=O)c1/C=N/O,active: 3.55 µM
6,Cc1ccc(C)c(NC(=S)NC(NC(=O)OCc2ccccc2)C(Cl)(Cl)Cl)c1 (stereo unspecified),"inconclusive [inhibitor, single point]"
7,COC(=O)c1ccc(NC(=O)CN2CCN(c3ccc(Cl)cc3)CC2)cc1,"inconclusive [inhibitor, partial curve, poor fit]"
8,COc1cc(C(c2c(C(=O)O)[nH]c3ccccc23)c2c(C(=O)O)[nH]c3ccccc23)ccc1OCc1ccccc1,inactive
9,O=C(CSc1nnc(-c2cccnc2)s1)Nc1cccc(C(=O)O)c1,"inconclusive [inhibitor, partial curve]"
10,O=c1oc(-c2ccc(C(F)(F)F)cc2)nn1Cc1cc(Cl)ccc1O,"inconclusive [inhibitor, single point]"
11,CC1CCCN(c2nc3ccccc3nc2C(C#N)C(=O)OC2CCCCC2)C1 (stereo unspecified),inactive
12,c1ccc2c(c1)OCC(CNc1ncnc3nc[nH]c13)O2 (stereo unspecified),"inconclusive [inhibitor, single point]"
13,CC(=O)NNC(=O)c1csc(Cc2c(Cl)sc3ccc(Cl)cc23)n1,"inconclusive [inhibitor, single point]"
14,CCc1ccc(-c2csc(NC(=O)C3CCCO3)c2C(=O)OC(C)C)cc1 (stereo unspecified),inactive
15,N/C(=N\OC(=O)c1ccco1)c1cccc(Br)c1,"inconclusive [inhibitor, single point]"
16,Cc1cccc(Nc2nnc(SCC(=O)NC3CCCc4ccccc43)s2)c1 (stereo unspecified),"inconclusive [activator, single point]"
17,COc1ccccc1NC(=O)c1c(O)c2ccccc2[nH]c1=O,"inconclusive [activator, partial curve]"
18,CCn1c2ccccc2c2cc(/C=N/NC(=O)c3ccncc3)ccc21,"inconclusive [inhibitor, single point]"
19,Cc1cccc(C(=O)N[C@H](C(=O)Nc2nc3ccccc3[nH]2)C(C)C)c1,"inconclusive [inhibitor, single point]"
20,O=C1N=C(N2CCCCC2)SC1=C1CCCC1,inactive
21,N=c1c[n+](-c2ccc(Cl)cc2)[n-]o1,"inconclusive [inhibitor, partial curve]"
22,COc1ccc(C(N)=S)cc1,"inconclusive [inhibitor, single point]"
23,Cc1cccc(N2CCN(CC(=O)Nc3ccc(S(=O)(=O)N4CCOCC4)cc3)CC2)c1C,"inconclusive [inhibitor, single point]"
